Results reported in PubChem BioAssay AID504832 (National Center for Advancing Translational Sciences (NCATS), 2011).
The whole screen tested about 310,000 compounds, of which about 18,000 (5.8%) were called active. Inconclusive means that the source gave no clear call. Such entries were picked first, then a sample of the others. Calls follow the shape of the dose curve; as a rule, active = well fitted inhibition curve with a large enough effect; inconclusive = small, poorly fitted or top-dose-only effect, or another doubt; inactive = no such curve, though single readings can be large or run the other way. Potencies of inconclusive entries are left out as doubtful fits.

assay: Primary qHTS for delayed death inhibitors of the malarial parasite plastid, 48 hour incubation; conditions: P. falciparum luciferase growth in erythrocytes; series mostly up to 28.7 µM; activity change, negative = inhibition: at the top concentration
Procedure, shortened: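 First compound was added to culture medium, then infected red cells at 0.1% parasitemia and 2% hematocrit (final). After incubation at 37 C under 5% CO2, luciferase detection reagent was dispensed and light output recorded.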
% is scaled to controls: 0 for no effect and ±100 for the full control effect; potency is read from the fitted curve at half-maximal effect; tags tell the direction and shape of the fitted curve.

| SMILES | activity change, negative = inhibition | Potency |
| --- | --- | --- |
| CC1CCN(c2nc3ccccc3nc2C(C#N)C(=O)NC2CCCCC2)CC1 (stereo not drawn) | inactive: -6.55% |  |
| COc1ccc(Nc2nc(-c3ccccc3F)nc3ccccc23)cc1OC |  | inconclusive [inhibitor, single point] |
| CCCCOc1ccc(CSC2=NCCN2)cc1[N+](=O)[O-] |  | inconclusive [inhibitor, single point] |
| C=CCn1c(SCC(=O)/C(C#N)=C(\C)N)nc2sc(CC)cc2c1=O |  | inconclusive [inhibitor, partial curve] |
| CC(=O)c1cccc(S(=O)(=O)NC2CC2)c1 | inactive: 16.3% |  |
| CCOC(=O)c1sc(NS(=O)(=O)c2ccc(F)cc2)nc1C | inactive: 10.5% |  |
| COc1ccc(C(=O)NC(=S)NCc2ccccc2)cc1 | inactive: 21% |  |
| CCCCCc1nc2c(c(=O)c3ccccc3n2C)c(=O)n1C1CCCCCC1 |  | inconclusive [inhibitor, single point] |
| CCCNC(=O)Cn1cnc2sc(C(=O)NCCN(CC)CC)c(C)c2c1=O | inactive: 23.5% |  |
| N#Cc1ccccc1NC1=CC(=O)CCC1 | inactive: 11.3% |  |
| O=C(NC1CCCC1)C(c1ccncc1)N(Cc1ccccc1)C(=O)Cc1cccs1 (stereo not drawn) |  | inconclusive [inhibitor, partial curve, poor fit] |
| CCC(=O)Nc1ccc2c(c1)nc1n2CCN(CCOC)C1 | inactive: 10.1% |  |
| COC(=O)c1cc(CNC(=O)c2ccc(S(=O)(=O)N(C)c3ccccc3)cc2)ccc1OC |  | active: 3.7 µM |
| O=C(Cc1ccc(Cl)cc1)Nc1ccc(-c2nnc(-c3ccco3)o2)cc1 |  | inconclusive [inhibitor, partial curve, poor fit] |
| Cc1ccccc1Nc1nnc(SCC2CCCCO2)s1 (stereo not drawn) | inactive: 77.8% |  |
| O=C(c1cccc(Cl)c1)N1CCn2c1nc1ccccc12 |  | inconclusive [inhibitor, partial curve, poor fit] |
| COc1ccc(OC)c(NC(=O)Cc2coc3ccc(C)cc23)c1 | inactive: 6.59% |  |
| Cc1cc(SCC(=O)c2ccccc2)nc(=O)[nH]1 | inactive: 31% |  |
| C=CCOC(=O)C1=C(C)N=C2SCCC(=O)N2C1/C=C/c1ccccc1OC (stereo not drawn) |  | inconclusive [inhibitor, partial curve, poor fit] |
| COC(=O)Cc1[nH]nc2c1C(c1ccc(O)c(OC)c1)C(C#N)=C(N)O2 (stereo not drawn) | inactive: 6.51% |  |
| C=Cn1cc[n+](CC(=O)c2ccc(OC)c(OC)c2)c1 |  | inconclusive [inhibitor, full curve, poor fit] |
| O=C1CN(C(=O)CSc2nnc3ccccn23)c2ccccc2N1 | inactive: 2.09% |  |
| CCCCCn1c(=O)c(C(=O)Nc2cccc(C)n2)c(O)c2ccccc21 |  | inconclusive [inhibitor, partial curve, poor fit] |
